Measured values reported in PubChem BioAssay AID1460 (National Center for Advancing Translational Sciences (NCATS), 2008).
About 5,800 (2.1%) of roughly 270,000 compounds were called active. Inconclusive results, whose numbers are uncertain, are shown with a selection of clear calls. Calls come from the whole dose curve; as a rule, active = well fitted inhibition curve with a large enough effect; inconclusive = small, poorly fitted or top-dose-only effect; inactive = flat fitted curve, though single readings scatter. Potencies beside an inconclusive call are fits to weak or partial responses and may not hold up.

These compounds were tested against Microtubule-associated protein tau (Homo sapiens) (UniProt P10636) (assay: qHTS for Inhibitors of Tau Fibril Formation, Thioflavin T Binding). Details: recombinant tau K18 P301L (four-repeat tau fragment), heparin-induced fibrillization, ThT fluorescence; series mostly up to 57.4 µM.
Sequence of UniProt P10636 (P10636 whole entry, looked up, the tested form may be a part): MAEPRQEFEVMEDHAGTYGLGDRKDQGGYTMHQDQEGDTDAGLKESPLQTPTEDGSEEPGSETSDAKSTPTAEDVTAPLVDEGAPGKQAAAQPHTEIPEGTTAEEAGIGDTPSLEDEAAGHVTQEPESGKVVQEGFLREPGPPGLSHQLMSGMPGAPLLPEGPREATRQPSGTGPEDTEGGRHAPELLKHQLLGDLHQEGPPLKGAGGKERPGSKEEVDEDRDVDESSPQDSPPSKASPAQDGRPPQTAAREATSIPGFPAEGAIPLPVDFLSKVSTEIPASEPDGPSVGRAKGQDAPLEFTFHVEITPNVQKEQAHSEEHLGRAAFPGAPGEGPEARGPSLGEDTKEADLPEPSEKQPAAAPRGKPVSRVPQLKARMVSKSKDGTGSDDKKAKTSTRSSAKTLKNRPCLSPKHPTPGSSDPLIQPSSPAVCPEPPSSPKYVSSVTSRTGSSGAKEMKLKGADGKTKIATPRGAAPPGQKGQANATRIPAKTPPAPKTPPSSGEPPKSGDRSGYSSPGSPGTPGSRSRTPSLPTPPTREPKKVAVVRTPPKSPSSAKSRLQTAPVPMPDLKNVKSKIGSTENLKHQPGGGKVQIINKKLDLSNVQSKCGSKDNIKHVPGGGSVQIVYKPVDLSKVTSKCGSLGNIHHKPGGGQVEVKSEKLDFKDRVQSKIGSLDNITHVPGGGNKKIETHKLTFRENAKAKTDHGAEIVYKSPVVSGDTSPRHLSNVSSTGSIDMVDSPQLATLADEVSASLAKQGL
In short: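 Heparin-induced fibrillization of the P301L-mutant K18 repeat-domain fragment of human tau was followed by ThT binding in quantitative high-throughput format.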
% is set by controls: 0 for no effect and ±100 for the full control effect; potency is the fitted concentration of half-maximal effect; tags give direction and shape of the fitted curve.
Note: nearly all actives have a fitted effect of over 55% in size.

Row | SMILES | Potency | activity, negative = inhibition
1 | CCC(=O)C1=C(c2ccc(F)cc2)N(C(=O)CC)n2c(nnc2-c2ccc(OC)cc2)S1 | inconclusive: 10 µM [inhibitor, partial curve] | 
2 | Cc1ccccc1Cc1c(C)nc2c(C(=O)NCc3ccc4c(c3)OCO4)cnn2c1C | inactive | 
3 | COC(=O)c1sc(NC(=S)NC(=O)c2ccccc2)nc1C | inconclusive: 0.355 µM [inhibitor, partial curve] | 
4 | CC1=NN(c2ccccc2)C(=O)/C1=C\c1ccc(Br)s1 | active: 12.6 µM | 
5 | CC(C(=O)c1ccc(-c2ccccc2)cc1)[n+]1ccccc1 (configuration not stated) | inactive | 
6 | C=CCn1c(-c2csc(-c3ccccc3)n2)n[nH]c1=S | inconclusive: 39.8 µM [inhibitor, single point] | 
7 | O=C(COc1ccc(Br)cc1)Nc1nnc(-c2cccnc2)s1 | inconclusive: 0.447 µM [inhibitor, full curve] | 
8 | CC(C)(C)c1ccc(C(=O)NCC(c2cccnc2)N2CCc3ccccc3C2)cc1 (configuration not stated) | inconclusive: 4.47 µM [inhibitor, partial curve] | 
9 | O=[N+]([O-])c1cc(-c2cnc3ccccc3n2)ccc1Oc1ccc(Br)cc1 | inconclusive: 10 µM [inhibitor, partial curve] | 
10 | O=C(O)/C=C/C(=O)Nc1ccc(O)cc1 | inconclusive: 31.6 µM [inhibitor, partial curve] | 
11 | Cc1cc(C)c(C)c(S(=O)(=O)NCC(=O)Nc2sc3c(c2C(N)=O)CCCC3)c1C | inconclusive: 3.98 µM [inhibitor, full curve] | 
12 | COc1ccc(NC(=O)C(=O)N/N=C(\C)CC(=O)Nc2cc(C)ccn2)c(OC)c1 | inconclusive: 22.4 µM [inhibitor, partial curve, poor fit] | 
13 | Cc1occc1-c1nnc(SCC(=O)c2ccc3c(c2)OCCO3)n1CC1CCCO1 (configuration not stated) | inconclusive: 20 µM [inhibitor, single point] | 
14 | Cc1cccc(CN2C(=O)c3ccccc3Sc3ccc(C(=O)NC4CCCCC4)cc32)c1 | inconclusive: 0.501 µM [inhibitor, full curve, poor fit] | 
15 | O=C(Nc1nncs1)C(Sc1ccccc1)c1ccccc1 (configuration not stated) | inactive | 
16 | CCOC(=O)N1CCN(c2cc(N(C)CCO)c([N+](=O)[O-])c3nonc23)CC1 | inconclusive: 11.2 µM [inhibitor, partial curve] | 
17 | Cc1c(-c2ccccc2)nc2ccccc2c1C(=O)Oc1ccc([N+](=O)[O-])cc1 | inconclusive: 20 µM [inhibitor, partial curve, poor fit] | 
18 | Cc1ccc(NC(=O)Cn2c(=O)n(Cc3ccco3)c(=O)c3oc4ccccc4c32)cc1C | inconclusive: 14.1 µM [activator, partial curve] | 
19 | Cn1c(-c2ccco2)n[nH]c1=S | inactive | 
20 | COc1ccc(OC(=O)c2nc(SCc3ccccc3F)ncc2Cl)cc1 | inconclusive: 8.91 µM [inhibitor, partial curve] | 
21 | COc1ccc(S(=O)(=O)N(C(=O)c2ccncc2)c2ccc(OC(=O)c3ccncc3)cc2)cc1 | inconclusive: 17.8 µM [inhibitor, partial curve, poor fit] | 

Row | SMILES | Potency | activity, negative = inhibition
22 | COCCn1c(C)cc(C(=O)COC(=O)c2ccc([N+](=O)[O-])o2)c1C | inactive | 
23 | Cc1ccccc1/C=C(\C#N)c1nc(-c2ccc(Cl)cc2)cs1 | inconclusive: 15.8 µM [inhibitor, partial curve] | 
24 | CC(=O)OC[C@@H]1O[C@@H](O/N=C2/C[C@@H](O)[C@@H](O)[C@@H]3[C@@H]4C(=O)N([C@@H](C)c5ccccc5)C(=O)[C@H]4CC[C@H]23)[C@H](OC(C)=O)[C@H](OC(C)=O)[C@@H]1OC(C)=O |  | inactive: -1.45% [at 11.5 µM]
25 | Cc1ccc(-c2ccc(/C=N/NC(=O)CN3CCOCC3)o2)cc1[N+](=O)[O-] | active: 15.8 µM | 
26 | COC(=O)c1ccc(C2=NOC(C)(c3sc(-c4ccccc4)nc3C)C2)cc1 (configuration not stated) | inactive | 
27 | Cc1ccc(/C=C/c2onc(C)c2S(=O)(=O)N2CCC(C(=O)Nc3ccc(Br)c(C)c3)CC2)cc1 | inconclusive: 11.2 µM [activator, partial curve, poor fit] | 
28 | CCOc1cc(NC(=S)NCC2CCCO2)c(OCC)cc1NC(=O)c1cccc(F)c1 (configuration not stated) | inactive | 
29 | O=C(CO/N=C/c1cccc([N+](=O)[O-])c1)Nc1ccc2ccccc2c1 | inconclusive: 6.31 µM [inhibitor, partial curve] | 
30 | COc1cc(/C=N/NC(=O)c2cn(-c3cccc(C)n3)cn2)ccc1O | inconclusive: 2.82 µM [inhibitor, full curve] | 
31 | Cc1ccc(S(=O)(=O)c2cn(CC(=O)Nc3cccc(C)c3)c3cc4c(cc3c2=O)OCO4)cc1 | inactive | 
32 | Cc1ccc(/C=C/C(=O)NCCc2c[nH]c3ccccc23)o1 | inconclusive: 10 µM [inhibitor, partial curve] | 
33 | CN(C)c1nc(N/N=C/c2c[nH]c3ccccc23)nc(N2CCOCC2)n1 | inconclusive: 28.2 µM [inhibitor, single point] | 
34 | Cc1sc(NC(=O)c2ccco2)c(CN2CCN(Cc3ccccc3)CC2)c1C | inconclusive: 25.1 µM [inhibitor, single point] | 
35 | C/C(=N\NC(=O)COc1ccccc1[N+](=O)[O-])c1cccs1 | inconclusive: 17.8 µM [inhibitor, single point] | 
36 | O=C(CC1C(=O)NCCN1Cc1ccc(-c2ccccc2)cc1)NCCc1ccccn1 (configuration not stated) | inconclusive: 35.5 µM [inhibitor, partial curve] | 
37 | Cc1nc2ccc(N=NN(C)C)cc2[nH]1 | active: 10 µM | 
38 | O=C(N/N=C/c1ccc(N2CCOCC2)cc1)C1COc2ccccc2O1 (configuration not stated) | inconclusive: 7.08 µM [inhibitor, partial curve] | 
39 | CCOc1ccc(Nc2oc(/C=C/c3cccc(OC)c3)nc2C#N)cc1 | inactive | 
40 | O=C(NCc1ccco1)N1c2ccccc2Sc2ccccc21 | inactive | 
41 | Cc1cccc(NC(=O)c2sc3nc(N)c(C#N)cc3c2N)c1 | inconclusive: 7.94 µM [inhibitor, partial curve] | 
42 | CCn1c(C)c(C(C)=O)c(N2CCN(c3cccc(Cl)c3)CC2)nc1=S | inconclusive: 25.1 µM [inhibitor, partial curve] | 
